# Measured values as given in PubChem BioAssay (NCI).
# Values joined by “and” are separate entries in the source; they are usually repeats but may differ in a detail not shown here. Equal values may be shown once.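 Cells were grown in 96-well plates and exposed to each compound for 48 hours at five concentrations; endpoints were interpolated linearly between bracketing concentrations, or set to the highest concentration if not reached. At the GI50, growth is halved. The concentration for full growth arrest is given as TGI.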
# System: NCI-H322M lung
# Test: inhibition of tumour cell growth, NCI panel, 48 h
SMILES,TGI [µM],GI50
O=C(c1cc2c(c3ccccc13)NC1(CCCCC1)N=C2C(F)(F)F)C(F)(F)F,23.8,–
Nc1c(C(=O)c2cccc(C#CCO)c2)cnn1-c1ccc(F)cc1,> 25,> 25 µM
COc1cc([N+](=O)[O-])c(OC)cc1-c1nc2sccn2c1/C=N/N=C(N)N,43.3,14.6 µM
COc1ccc(C2=CC(c3ccc(OC)cc3Br)N3C=CSC3=N2)cc1 (stereo not given),58.9,23.7 µM
O=C(NNC(=O)c1csc(NC(=S)NC2CCCCC2)n1)c1ccccc1,41.3,–
O=S(=O)(/C=C/CS(=O)(=O)c1ccccc1)c1ccccc1,81.5,–
CCC[CH2][Sn]1([CH2]CCC)[O]C2C(CO)OC(n3ccc(N)nc3=O)C2[O]1 (stereo not given),3.12,1.68 µM
CCOC(=O)c1cccc(NC(=O)CI)c1,9.97,–
CCOC(=O)NN(C(=O)OCC)c1c(C)cc(C)cc1C,> 100,–
O=C(N/N=C(/COc1ccccc1)N=Cc1cccnc1)c1ccncc1,> 100,–
Cc1ccc(C(=O)NC2CCC2)cc1-c1ccc(C(=O)NCC2CC2)cc1,> 25,> 25 µM
COc1ccc2nc3cc(Cl)ccc3c(SCC(=O)Nc3ccccc3-c3ccccc3NC(=O)CSc3c4ccc(Cl)cc4nc4ccc(OC)cc34)c2c1,> 100,–
CC(=O)CC1=C(OC(C)C)C2(OCCO2)C1O (stereo not given),> 100,–
Nc1ncnc2c1c(-c1ccc(Oc3ccccc3)cc1)nn2C[C@@H]1SSC[C@H]1O,15,2.61 µM
O=C(Nc1ccc(Oc2cccc(F)c2)c(Cl)c1)c1cnccn1,> 50,2.59 µM
COc1cccc(C2c3cc4c(cc3OC(Nc3ccccc3)C2C)OCO4)c1OC (stereo not given),> 100,–
CC(C)Oc1c(-c2ccc(F)cc2)c(O)c2c3c1oc(=O)n3C=CC2C (stereo not given),26.3,–
O=C1c2ccc3c4c(ccc(c24)C(=O)N1CCCNCc1ccccc1Cl)C(=O)N(CCCNCc1ccccc1Cl)C3=O,0.772,0.217 µM
COc1ccc(C2=C(c3ccc(OC)c(OC)c3)C(=O)N3CCCC3C2)cc1 (stereo not given),> 100,42.1 µM
COc1cccc(/C=C2\S/C(=N/Nc3nc(-c4ccc([N+](=O)[O-])cc4)cs3)NC2=O)c1O,57.7,–
CC(=O)OC(C)(C)CCC(=O)[C@](C)(O)[C@H]1[C@H](O)C[C@@]2(C)[C@@H]3CCc4c(cc(OC5OC(CO)C(O)C(O)C5O)c(O)c4C)C3(C)C(=O)C[C@]12C (stereo not given in full),> 100,–
CN1CC2CN(Cc3ccccc3)CCN2c2cccnc21 (stereo not given),> 100,–
N#CSCc1ccc(Cl)c(CSC#N)c1,> 75.1,> 39.1 µM
O=C(OCCNC(=O)N1CC1)OCCNC(=O)N1CC1,> 10,–
ON=C(CC(O)(C(F)(F)Cl)C(F)(F)Cl)CC(O)(C(F)(F)Cl)C(F)(F)Cl,4.47,–

SMILES,TGI [µM],GI50
c1ccc([I+]c2ccccc2)cc1,> 100,–
C[C@]12CCC(=O)CC1CCCC2=O (stereo not given in full),> 100,–
Cc1ccc(C(=O)N/N=C(\N=Nc2ccc(C(=O)O)cc2)c2ccc(N(CCC#N)CCC#N)cc2C)cc1,> 100,–
CNC1(C(=O)O)CC1,> 100,–
Cn1c(N)nc(-c2ccc(Cl)cc2)c1SSc1c(-c2ccc(Cl)cc2)nc(N)n1C,33.9,–
O=C1/C(=N\O)S(=O)(=O)c2ccccc21,> 100,–
Cc1cc(S(=O)(=O)/N=C(\[N-]S(=O)(=O)c2cc(Cl)sc2Cl)[n+]2ccc(N(C)C)cc2)c(S)cc1Cl,> 100,–
O=c1oc2cc(O)ccc2c(O)c1Cc1c(O)c2ccc(O)cc2oc1=O,> 100,–
COc1cccc(-c2cc3c4c(nc5ccccc53)C(=O)c3cccnc3-c4n2)c1,7.63,2.75 µM
CC1C(C#N)(C#N)C(C#N)=C(N)C1(Cl)[N+](=O)[O-] (stereo not given),29.3,–
NC(=O)c1ccc(-c2nc(-c3ccc4c(c3)OCO4)c(-c3ccccn3)[nH]2)cc1,> 100,> 25 µM and 32.3 µM
C=C1C[C@H](O)[C@H](Br)C(C)(C)C12CCC(C)(Cl)C(Br)C2 (stereo not given in full),5.36,–
O=C1CC(NCc2ccccc2)c2c(Cl)sc(Cl)c21 (stereo not given),> 100,–
CNC(=O)OCc1c2ccncc2c(C)c2c1[nH]c1ccc(OC)cc12,2.79,–
NS(=O)(=O)c1ccc(/C=C/c2ccc(O)cc2)cc1,> 100,–
Cc1cccc(N/C(Sc2ccccc2)=C(/C(Cl)=C(Cl)Cl)[N+](=O)[O-])c1,69.3,–
CC1(C)N=C(C2CCCN2C(=O)OCc2ccccc2)OC1=O (stereo not given),> 100,–
Cn1cc(-c2csc(-c3cn(CCCN4CCCCC4)c4ccccc34)n2)c2cccnc21,3.08,1.67 µM
c1ccc2[nH]c(-c3cc(-c4ccc5c(c4)OCO5)n[nH]3)nc2c1,22.6,6.29 µM
CCCCCCCCC/C=C1\CCC(CN(C)C)C1=O (stereo not given),13,–
Cc1ccc2c(=O)c3ccccc3sc2c1,> 100,–
Nc1c(C(=O)c2cccc(-c3cccnc3)c2)cnn1-c1ccc(F)cc1F,> 25,> 13.1 µM
COC(=O)C1=C(C)NC(C)=C(C(=O)OCC(C)C)C1c1ccccc1[N+](=O)[O-] (stereo not given),33.4,4.86 µM
O=C(Nc1ccc(Cl)cc1)c1cc(S(=O)(=O)Nc2nnc3c(Cl)cc(C(F)(F)F)cn23)c(S)cc1Cl,> 100,–
